We go through 84 variants from the RNAGym collection of RNA variant scans (doi:10.1101/gad.245936.114).

Variants at the floor of the assay are shown more often than the library holds them.

B1: tRNA (parent)
chain: CUCUCGGUAGCCAAGUUGGUUUAAGGCGCAAGACUUUAAUUUAUCACUACGAAAUCUUGAGAUCGGGCGUUCGACUCGCCCCCGGGAGAUUUUUUCCUCGAGCAA

The variants in the data set derive from B1. The data set is described as follows: nonsense suppression (GFP-seq) (ratio to wild type); higher = more function; SUP4oc tRNA, yeast GFP reporter sort-seq. The gist of the method: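 Raffinose/galactose medium with 80 mg/L adenine was used to grow yeast carrying genome-integrated tRNA variants (~3% random-mutation library), RFP, and a galactose-driven GFP ochre reporter. Cells went into GFP/RFP bins, which were Illumina-sequenced, and variants with ≥100 reads and ≥30 cells were scored. Nonsense suppression (GFPSEQ) is the per-bin median GFP/RFP weighted by estimated cell share and expressed relative to the unmutated parent tRNA.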
Regarding A30C U35G, the nonsense suppression was not above 0.026.

With U70G G86U, the nonsense suppression was not above 0.026. The same measure for G7A A13C U70C: not above 0.026; for G10A G26U G65C: not above 0.026. For the variant U20C G69A, the nonsense suppression is not above 0.026.

Turning to U55A G66U, the nonsense suppression is not above 0.026. In the case of G15A G73C C75G it was not above 0.026; in that of U20C A54U, 0.62. The same measure for G32A C83A: not above 0.026; for A54U G67A: 0.0673; for U8G A9C A31C G67A G73A A74U: not above 0.026. The same measure for G18U A60U C79A: not above 0.026; for C11A U22C C56G G61C C80G: not above 0.026; for G15A A24G: not above 0.026. As to C3G U58A C64U G65A, the nonsense suppression is not above 0.026. The same measure for A24G U63G C80A G85C: not above 0.026; for C3G U57G: not above 0.026. The same measure for U22G A33G U55C U63C G69C U70A G85C: not above 0.026; for A9U U20G C80G: not above 0.026.

Turning to U4A C27A G32C C34G C83A, the nonsense suppression was not above 0.026. As to C27A G59C U70A U71A, the nonsense suppression is not above 0.026. The same measure for U17C G28U G65U: not above 0.026; for C11A G88C A89G: not above 0.026; for G15U A24G G59C: not above 0.026.

U20A G28C G65A: the nonsense suppression was not above 0.026. For the variant U16C G66C A87G, the nonsense suppression was not above 0.026. For the variant G25C C68A, the nonsense suppression was not above 0.026. In the case of C1U C34A G73C it was not above 0.026. The same measure for C5U G59U: not above 0.026; for G26A G61U: not above 0.026; for C1A A23C A24U C75A: not above 0.026.

On to A9G A24G A54U U71G, for which the nonsense suppression is not above 0.026. In the case of C5U G65A it was not above 0.026; in that of A31U U63A G85C A89C, not above 0.026; in that of U55G A60C C75A, not above 0.026.

With U63G G88A, the nonsense suppression is not above 0.026. In the case of U8C A13C U21C G66C C83U A89U it was not above 0.026; in that of G61A U63A, 0.304; in that of C1A G61U G86U, not above 0.026.

Take G19U U76G: the nonsense suppression was not above 0.026. The same measure for G10C C12A G26U G32C: not above 0.026; for A31G U58G C64U C68G: not above 0.026; for U58C G59A G69A C80A: not above 0.026.

Regarding C5U U22G G28C G61U U71G, the nonsense suppression is not above 0.026. On to G26A C72G U76C, for which the nonsense suppression was not above 0.026. In the case of A31C A62G U76A C81U it was not above 0.026; in that of C5A C56A G67A G78U, not above 0.026.

U4A C5G G69C G86A: the nonsense suppression is not above 0.026. Regarding U4G G78U, the nonsense suppression worked out at 0.0997. In the case of U2C U8A A24C A89C it was not above 0.026; in that of C80U G84A, 0.125; in that of C11G A23U G28C U71A, not above 0.026.

As to U8G C56G G65C C79A, the nonsense suppression is not above 0.026. On to C29U U55C U76G G78C, for which the nonsense suppression is not above 0.026.

A9G C11G U21A G67A: the nonsense suppression was not above 0.026. The same measure for C29U U35G: not above 0.026; for C12U C77U: not above 0.026; for G61U U76A: not above 0.026. In the case of U16C A62G U63C it was not above 0.026; in that of A33U G84A, not above 0.026. The same measure for C3U C12U: 0.039; for A9C C34U U58G G78C: not above 0.026. With U4C G61C U70G, the nonsense suppression was not above 0.026. The same measure for U17C U35A C68A: not above 0.026.

Turning to A13U C34G C77U, the nonsense suppression was not above 0.026. The same measure for C1U A31C A89U: not above 0.026; for U8C G10C A60G G61A: not above 0.026; for U17A G61A: 0.83.

In the case of U16G U20G A23U C56G A62U G69U U70G, the nonsense suppression was not above 0.026. In the case of A9G A54U it was 0.196; in that of U4G C5U, 0.0955. The same measure for A13U U57A: 0.0273; for G26C G32C G59C G86U: not above 0.026; for C82G G85C: not above 0.026. The same measure for C12U A33C U63G: not above 0.026. For the variant A24U U55C C82G C83A G88C, the nonsense suppression is not above 0.026.

On to A33U G67U, for which the nonsense suppression is not above 0.026. For the variant G6U G10U C75G, the nonsense suppression is not above 0.026. In the case of A9G U21G A30G C82A it was not above 0.026; in that of A9C G15A C29G G69C, not above 0.026.

Consider C27A U55C U71C, for which the nonsense suppression was not above 0.026. The same measure for U2A U55C C77G: not above 0.026. The same measure for C12G A23G C64G: not above 0.026; for A14U A33G C83U: not above 0.026.
